Out of some 310,000 compounds screened, about 14,000 (4.5%) showed an effect of 50% or more. The effect is printed as a negative number. The list shows a part of the results.
These compounds were tested against human ether-à-go-go-related gene (hERG) potassium channel (human, UniProt Q12809) (assay: primary screen, population patch clamp on CHO cells stably expressing hERG).
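Note: peak tail current of the secondary pulse compared with the same well before compound.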

Sequence of human ether-à-go-go-related gene (hERG) potassium channel (Q12809 whole entry, looked up): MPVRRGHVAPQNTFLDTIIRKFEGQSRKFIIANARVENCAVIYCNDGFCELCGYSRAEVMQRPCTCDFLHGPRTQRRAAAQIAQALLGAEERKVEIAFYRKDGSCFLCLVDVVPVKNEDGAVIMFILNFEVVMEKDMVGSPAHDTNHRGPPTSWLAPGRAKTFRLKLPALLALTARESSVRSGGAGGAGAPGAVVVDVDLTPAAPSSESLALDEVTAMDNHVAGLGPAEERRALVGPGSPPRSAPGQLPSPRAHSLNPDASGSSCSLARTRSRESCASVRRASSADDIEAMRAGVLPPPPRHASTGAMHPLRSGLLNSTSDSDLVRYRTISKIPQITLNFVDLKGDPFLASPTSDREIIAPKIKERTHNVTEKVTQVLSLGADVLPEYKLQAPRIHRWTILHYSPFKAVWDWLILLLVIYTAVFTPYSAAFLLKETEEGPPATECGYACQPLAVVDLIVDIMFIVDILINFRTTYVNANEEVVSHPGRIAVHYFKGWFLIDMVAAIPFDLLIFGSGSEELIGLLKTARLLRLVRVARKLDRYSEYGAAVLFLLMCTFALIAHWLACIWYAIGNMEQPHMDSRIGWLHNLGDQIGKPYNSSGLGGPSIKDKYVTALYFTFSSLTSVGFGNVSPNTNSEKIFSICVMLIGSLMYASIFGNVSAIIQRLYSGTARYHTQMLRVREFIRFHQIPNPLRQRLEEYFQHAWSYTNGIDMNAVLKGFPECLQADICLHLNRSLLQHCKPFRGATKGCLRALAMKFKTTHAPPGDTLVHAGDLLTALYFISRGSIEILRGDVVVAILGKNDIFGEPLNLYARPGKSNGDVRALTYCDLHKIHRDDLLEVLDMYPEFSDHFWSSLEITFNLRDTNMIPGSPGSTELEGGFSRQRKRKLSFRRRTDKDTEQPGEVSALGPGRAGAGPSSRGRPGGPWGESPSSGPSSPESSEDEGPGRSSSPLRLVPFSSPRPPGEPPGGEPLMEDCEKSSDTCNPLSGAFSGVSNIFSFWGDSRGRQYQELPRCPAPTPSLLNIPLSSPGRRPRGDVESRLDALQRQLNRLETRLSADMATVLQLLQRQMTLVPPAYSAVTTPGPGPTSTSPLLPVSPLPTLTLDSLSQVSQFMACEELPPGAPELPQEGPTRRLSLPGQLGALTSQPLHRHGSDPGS

SMILES	hERG current change (%, negative = inhibition) at 10uM [%]
CCCN1Cc2cccc(C(=O)N3CCN(c4cc(Cl)ccc4C)CC3)c2C1=O	-52.5
CC(=O)C1=C(Nc2ccccc2)CC(C)(O)C(C(C)=O)C1c1ccccc1 (stereo not shown)	-5.43
CN(CC(=O)Nc1ccccc1Br)C(=O)CCCSc1nc2ccccc2[nH]1	-6.04
COc1cc(OC)cc(C(=O)NC(C)c2ccc(Br)cc2)c1 (stereo not shown)	-0.889
Cc1ccc2c(c1)c(N=Nc1cccc(C(=O)O)c1)c(O)n2C	-0.932
CCOC(=O)C1C(=O)CC(C)(O)C(C(=O)OCC)C1c1ccc(C)s1 (stereo not shown)	2.99
O=C(/C=C/c1ccco1)N(c1ccccn1)c1ccccn1	9.53
CCCc1nc2ccc([N+](=O)[O-])cc2[nH]1	15.3
O=C(NCc1cccs1)C1CCCN(S(=O)(=O)c2ccc(Br)s2)C1 (stereo not shown)	7.6
Cc1ccc2nc(NC(=O)C3CCCN3C(=O)OC(C)(C)C)sc2c1 (stereo not shown)	1.31
CCCCN1CCC(O)(c2ccccc2)C(C(=O)c2ccccc2)C1 (stereo not shown)	-11.7
Nc1ccc(S(=O)(=O)[O-])cn1.[Na+]	26.1
COc1ccc(Cc2nnc(SC(C)C(=O)Nc3ccc(C(N)=O)cc3)o2)cc1 (stereo not shown)	-11.9
COc1ccc(CN2CCC(Oc3cc(C(=O)NC4CC4)ccc3OC)CC2)c(O)c1	-77.3
O=C(OCC(=O)N1CCN(c2ccccc2)CC1)C1=COCCO1	21.8
CCN(CC)C(=O)CSc1nc(O)c(Cc2ccccc2)c(=O)n1-c1ccc(C)cc1	20
CS(=O)(=O)c1cccc(NC(=O)CSc2nnc3n2CCCCC3)c1	10.3
COc1ccc(-c2cc(=O)oc3cc(OC(=O)C4CCCCC4)ccc23)cc1	7.87
Br.COc1cccc(Nc2nc(-c3cccc(N4C(=O)c5ccccc5C4=O)c3)cs2)c1	17.5
CCCNC(=O)COC(=O)c1[nH]c(C)c(C(=O)OCC)c1C	7.57
CC(=O)Nc1nc(CCC(C)C)cc2c1c(=O)oc1ccccc12	2.54
COc1ccccc1Cn1nnc2c(=O)[nH]c(C3CCN(C(=O)c4ccc(C)cc4)CC3)nc21	-18.4

SMILES	hERG current change (%, negative = inhibition) at 10uM [%]
CCOc1cc(CNCc2cc(OC)cc(OC)c2)ccc1OC.O=C(O)C(=O)O	-10.8
CCCNC(=O)OCCC12CC3CC(CC(C3)C1)C2	18
CN=c1scc(C)n1/N=C/c1ccc(O)cc1O	-1.8
O=C(CSc1ncn[nH]1)N1CCOCC1	32.2
Cc1nn(C(C)(C)C)c(NC(=O)c2ccc(Cl)cc2Cl)c1Br	7.67
Clc1cccc(CNc2nnnn2-c2ccccc2)c1	22.5
C=C(C)CSc1nc(N)c(C#N)c(-c2ccc(C)cc2)c1C#N	1.76
CC1CCN(C(=O)CSc2nnc(CNC(=O)c3ccc(S(=O)(=O)N(C)C)cc3)o2)CC1	18.7
O=C(CSc1nnc(-c2ccc(Cl)s2)o1)N1CCc2ccccc21	-13.7
Cn1c(Cn2c(=O)sc3ccccc32)nnc1SCC(=O)N1CCc2ccccc21	-9.34
COc1ccc(C(=O)NNC(=O)C(=O)NC(C)c2ccccc2)cc1OC (stereo not shown)	13.7
Cc1c(-c2ccccc2)c(P(=O)(N2CCOCC2)N2CCOCC2)c2ccccn12	-21.6
O=C(NNC(=O)c1cc(-c2ccccc2)nc2ccccc12)Nc1cccc(Cl)c1	0.557
COc1ccc(CCNC(=O)C2CCCN(Cc3nc(-c4cccc(Cl)c4)oc3C)C2)cc1OC (stereo not shown)	-84.1
Cc1oc2c(c1C(=O)N1CCC(C)CC1)C(=O)c1ccccc1C2=O	-9.11
C[C@@H]1CCC(=O)N(CC[C@H](Oc2ccccc2)c2ccccc2)CC1	-10.2
COc1ccc(/C=N/Nc2nc(-c3ccc(Cl)cc3)cc(C(F)(F)F)n2)c(OC)c1	2.62
COc1ccccc1-c1cc(C(=O)Nc2cc(C)on2)no1	-2.52
CC(C)NC(=O)Cn1cc(C(=O)C2CC2)c2ccccc21	26.5
CC1CCN(C(=O)Cn2c3ccccc3c3nc4n(c(=O)c32)CCS4)CC1	6.31
O=C1CN(C(=O)COC(=O)c2ccccc2Br)c2ccccc2N1	0.233
